Laboratory results published in PubChem BioAssay AID686978 (National Center for Advancing Translational Sciences (NCATS), 2013).
Screen size: about 420,000 compounds; about 64,000 (15%) were called active. The shares of active, inactive and inconclusive entries below differ from those in the screen. Calls come from the whole dose curve; as a rule, active = well fitted inhibition curve with a large enough effect; inconclusive = small, poorly fitted or top-dose-only effect; inactive = flat fitted curve, though single readings scatter. No potency is given beside an inconclusive call; the fits are too rough.

experiment: qHTS for Inhibitors of human tyrosyl-DNA phosphodiesterase 1 (TDP1): qHTS in cells in absence of CPT; conditions: DT40 Tdp1-/- hTDP1 cells, no CPT, ATP luminescence, 48 h; activity change, negative = growth inhibition: at 46.2 µM (top of the series) unless noted; note: nearly all actives have a fitted effect of over 55% in size
Method in brief: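 Chicken DT40 Tdp1-/- cells stably complemented with human TDP1 were seeded at 400 cells/well with DMSO in place of 20 nM camptothecin. After compound pinning, cells grew at least 48 hr at 37 °C; viability read by CellTiter-Glo luminescence.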
% is set by controls: 0 for no effect and ±100 for the full control effect; potency is the fitted concentration of half-maximal effect; tags give direction and shape of the fitted curve.

Row | Compound | Potency | activity change, negative = growth inhibition
1 | CC(=O)c1c(C)oc2ccc(NS(=O)(=O)c3ccccc3)cc12 | inconclusive [inhibitor, single point] | 
2 | O=C(COC(=O)c1cccc(O)c1)Nc1nnc(-c2ccccc2)o1 | inconclusive [inhibitor, single point] | 
3 | Cc1ccc(/C=N/NC(=O)Cc2c[nH]c3ccccc23)c(C)c1 | inconclusive [inhibitor, single point] | 
4 | O=C(Nc1ccc2ccccc2c1)c1ccccc1Cl | inconclusive [inhibitor, single point] | 
5 | CCOC(=O)C1=C(C)NC(=O)NC1c1ccc(NC(C)=O)cc1 (stereo unspecified) |  | inactive: -20.8%
6 | CC(=O)c1c(C(C)=O)c(C)n(Cc2ccc(Cl)cc2)c1C | active: 18.4 µM | 
7 | Cc1cc(C)cc(S(=O)(=O)c2cnc3ccccc3n2)c1 | inconclusive [inhibitor, single point] | 
8 | CCN(CC(=O)Nc1c(C(=O)OC)[nH]c2ccccc12)c1ccc2c(c1)OCO2 | inconclusive [inhibitor, single point] | 
9 | CN1N=C(C(C)(C)C)CSC1=Nc1ccccc1 | inconclusive [inhibitor, single point] | 
10 | COC(=O)c1cc2ccccc2c(-c2c(OC)c(C(=O)OC)cc3ccccc23)c1OC | inconclusive [inhibitor, single point] | 
11 | NNC(=O)c1sc2cc(C(F)(F)F)cnc2c1-c1cccnc1 |  | inactive: -5.38%
12 | COc1ccc(CCNC(=O)c2cc3sccc3n2C)cc1OC | inconclusive [inhibitor, single point] | 
13 | COc1ccc(N2CCN(CCCNC(=O)CCC(=O)N3CCOc4ccc(Cl)cc43)CC2)cc1 | inconclusive [inhibitor, partial curve] | 
14 | COc1ccccc1N(C)S(=O)(=O)c1ccc(C)c(C(=O)NC(C)c2ccccn2)c1 (stereo unspecified) | inconclusive [inhibitor, single point] | 
15 | C=CCn1c(NCc2cc(Cl)ccc2O)nc2ccccc21 | inconclusive [inhibitor, single point] | 
16 | CCCS(=O)(=O)N1CCCC(C(=O)NCCCN2CCN(c3cccc(Cl)c3)CC2)C1 (stereo unspecified) | inconclusive [inhibitor, single point] | 
17 | CCOC(=O)/C=C1\NC2(CCCCC2)Cc2cc(OC)c(OC)cc21 | inconclusive [inhibitor, single point] | 
18 | CCN(CCn1cccn1)C(=O)CC1C(=O)NCCN1Cc1cc(OC)cc(OC)c1 (stereo unspecified) |  | inactive: 7.33%
19 | COc1ccc(NC(=O)C2CCCN2C(=O)NCc2ccccc2)cc1 (stereo unspecified) | inconclusive [inhibitor, single point] | 
20 | O=c1c(-c2ccccc2)nc2cnc(N3CCOCC3)nc2n1C[C@H]1CCCO1 |  | inactive: 12.1%
21 | Cc1ccc(NC(=O)CNc2ccccc2N2CCCC2=O)cc1S(=O)(=O)N1CCOCC1 | inconclusive [inhibitor, single point] | 
22 | O=C(NCc1ccccn1)c1ccc(Cn2c(=S)[nH]c3ccccc3c2=O)cc1 | inconclusive [inhibitor, partial curve, poor fit] | 
23 | COc1ccc(-c2nc(C#N)c(N3CCC(C(N)=O)CC3)o2)cc1 | inactive | 
24 | O=C(Cc1ccc(Br)cc1)NO | inconclusive [inhibitor, partial curve] | 

Row | Compound | Potency | activity change, negative = growth inhibition
25 | Cc1ccc(N(Cc2ccccc2)C(=O)c2cc(S(=O)(=O)N3CCOCC3)ccc2Cl)cc1 | active: 7.31 µM | 
26 | Cn1c(=O)c2cc(NC(=O)NCCc3ccccc3)ccc2n1Cc1ccccc1 | inconclusive [inhibitor, single point] | 
27 | O=C(N/N=C/c1cccnc1)c1cc2ccccc2o1 |  | inactive: -21.8%
28 | CCOc1ccc(-n2nc3c(=O)[nH]nc(C)c3c2C)cc1 | inconclusive [inhibitor, single point] | 
29 | Cc1ccccc1-c1nnc(SCC(=O)N2CCCc3ccccc32)o1 | inconclusive [inhibitor, single point] | 
30 | OCCCCNCc1cc(Br)ccc1OCc1ccccc1 | inconclusive [inhibitor, partial curve] | 
31 | O=C(Nc1ccc(F)cc1)c1ccc(S(=O)(=O)NCC2CCCO2)cc1 (stereo unspecified) | active: 13 µM | 
32 | O=Cc1cn(-c2ccccc2)nc1-c1ccccc1 | inconclusive [inhibitor, single point] | 
33 | Cn1cccc1/C=C1\SC(=O)N(c2ccc(O)cc2)C1=O | inconclusive [inhibitor, partial curve] | 
34 | Cc1cn(CCOc2ccc(Cl)cc2)c(=O)[nH]c1=O |  | inactive: -0.649%
35 | CC1(C(=O)NC2CCCCCC2)CCN1C(=O)C1(c2ccccc2)CC1 (stereo unspecified) | active: 18.4 µM | 
36 | CN(Cc1ccccc1)c1ccc(N2C(=O)CCCC2=O)cc1[N+](=O)[O-] | inconclusive [inhibitor, partial curve, poor fit] | 
37 | CCN(CC)S(=O)(=O)c1cccc(C(=O)Nc2ccccc2)c1 | inconclusive [inhibitor, single point] | 
38 | Cc1ccc(CCN2CC(C(=O)O)CC2=O)cc1 (stereo unspecified) |  | inactive: 0.404%
39 | CC1Cc2cc(S(=O)(=O)CCC(=O)N3CCN(c4ccccc4)CC3)ccc2N1C(=O)C1CC1 (stereo unspecified) | inconclusive [inhibitor, single point] | 
40 | CC[N+](CC)(CC)CCOc1ccc(/C=C\c2ccccc2)cc1 | active: 2.11 µM | 
41 | CC(=O)N1N=C(c2ccc(Br)cc2)OC1(C)CC(=O)Nc1ccccc1 (stereo unspecified) | inconclusive [inhibitor, single point] | 
42 | Cc1ccc(NC(=O)N2CCC(CN3CCCCCC3)CC2)c(Cl)c1 | inconclusive [inhibitor, partial curve] | 
43 | COc1ccc(-c2oc(NC(=O)CSc3nncn3C)c(C#N)c2-c2ccc(OC)cc2)cc1 | inconclusive [inhibitor, single point] | 
44 | CCOc1ccc(C(C)NC(=O)c2cccs2)cc1OCC (stereo unspecified) | inconclusive [inhibitor, single point] | 
45 | Cc1nc(-c2ccc(S(=O)(=O)Nc3ccc(OC(F)(F)F)cc3)cc2)co1 | inconclusive [inhibitor, partial curve, poor fit] | 
46 | Cc1ccc(C)c(Nc2nc3ccc(C)cc3n3cnnc23)c1 | inconclusive [inhibitor, single point] | 
47 | COC(=O)c1cn(Cc2cccc(C)c2)nn1 | inconclusive [inhibitor, single point] | 
48 | CCOC(=O)C1(C)CCCN(C(=O)c2cccc(C(F)(F)F)c2)C1 (stereo unspecified) | inconclusive [inhibitor, single point] | 

Row | Compound | Potency | activity change, negative = growth inhibition
49 | O=c1c(-c2ccccc2)nnc2sc(COc3ccc(Br)cc3)nn12 |  | inactive: -13.8%
50 | CCCCCCC[n+]1ccc(/C=C/c2c[nH]c3ccccc23)cc1 | active: 0.316 µM | 
51 | COc1cc(OC)cc(C(=O)Nc2ccc(N3CCOCC3)cc2N2CCOCC2)c1 | inconclusive [inhibitor, single point] | 
52 | N#CCc1nc2ccccc2c(=O)[nH]1 | inconclusive [inhibitor, partial curve, poor fit] | 
53 | O=C(C1CCN(S(=O)(=O)c2ccccc2)CC1)N1CCC1 |  | inactive: -15%
54 | CSCCNC(=O)C1(C)CCN1C(=O)CCc1ccccc1 (stereo unspecified) |  | inactive: 0.747%
55 | O=C(c1cnccn1)N1CCC2(CCN(Cc3ccccc3)CC2)CC1 |  | inactive: -14.8%
56 | CCOc1ccccc1NC(=O)CCc1nc(-c2cccc(C)c2)no1 | inconclusive [inhibitor, single point] | 
57 | O=C1Nc2ccccc2/C1=C/c1ccnc2ccccc12 | inconclusive [inhibitor, single point] | 
58 | CCC(O)C1CCN(Cc2cn(Cc3ccccc3)nc2-c2cc3ccccc3o2)CC1 (stereo unspecified) | inconclusive [inhibitor, single point] | 
59 | O=C1c2ccccc2C(=O)C1(c1ccccc1)N1CCN(c2cccc(C(F)(F)F)c2)CC1 | inconclusive [inhibitor, single point] | 
60 | CCCN1C(=O)CC(=O)N=C1SCC(=O)Nc1ccccc1F |  | inactive: -1.18%
61 | COc1cc(CN(CC(C)C)S(=O)(=O)c2ccccc2Br)cc(OC)c1 | inconclusive [inhibitor, partial curve, poor fit] | 
62 | Cc1ccccc1OCC(O)Cn1c(NCc2ccccc2)nc2c1c(=O)[nH]c(=O)n2C (stereo unspecified) |  | inactive: -23.1%
63 | COc1cc(CNc2ccc3[nH]c(=O)[nH]c3c2)ccc1OCc1ccc(C)cc1 | inconclusive [inhibitor, single point] | 
64 | Cc1ccc(C(=O)NNC(=O)CSc2n[nH]c(-c3cccnc3)n2)cc1 | inconclusive [inhibitor, single point] | 
65 | CC(=O)c1ccc(NC(=O)CN2CCC(NC(=O)c3ccccc3C)CC2)cc1 | inconclusive [inhibitor, single point] | 
66 | CC(C)(C)OC(=O)NCC1CCC(C(=O)NC[C@H](CC(=O)O)c2ccc(Cl)cc2)CC1 (stereo partly specified) |  | inactive: -5.24%
67 | O=C(N/N=C/c1cccnc1)c1cc(-c2ccc(Cl)cc2)nc2ccccc12 | active: 8.2 µM | 
68 | COc1cc(OC)c(C2=NOC(C(=O)O)C2)cc1Cl (stereo unspecified) |  | inactive: -2.21%
69 | COc1ccc(Cl)cc1NC(=O)c1cc2ccccn2n1 |  | inconclusive: -30.4% [inhibitor]
70 | CC(C)C1Cc2[nH][nH]c(=O)c2C(c2ccc(Cl)cc2)O1 (stereo unspecified) |  | inconclusive: -33.6% [inhibitor]
71 | NC(=O)c1ccsc1NC(=O)c1ccc(S(=O)(=O)N2CCCc3ccccc32)cc1 | active: 18.4 µM | 
